Source: EP1076704B1 (AiCuris GmbH & Co. KG, dated 2007)

Assays:
Assay in all cases: cell-based or functional assay
[1] = target: T1, high affinity IL-2 receptor IL-2Rαβγ on human PHA-blasts (activated T cells) (human, UniProt P01589 22-272; P14784 27-551; P31785 23-369)
T1 sequence (looked up) 1: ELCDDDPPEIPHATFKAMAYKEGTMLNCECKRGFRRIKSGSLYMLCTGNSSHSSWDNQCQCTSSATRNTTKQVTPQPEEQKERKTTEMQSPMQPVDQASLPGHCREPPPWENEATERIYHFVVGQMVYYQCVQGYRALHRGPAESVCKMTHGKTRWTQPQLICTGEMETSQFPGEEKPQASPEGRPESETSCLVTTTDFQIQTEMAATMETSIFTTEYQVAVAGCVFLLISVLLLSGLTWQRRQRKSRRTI
T1 sequence (looked up) 2: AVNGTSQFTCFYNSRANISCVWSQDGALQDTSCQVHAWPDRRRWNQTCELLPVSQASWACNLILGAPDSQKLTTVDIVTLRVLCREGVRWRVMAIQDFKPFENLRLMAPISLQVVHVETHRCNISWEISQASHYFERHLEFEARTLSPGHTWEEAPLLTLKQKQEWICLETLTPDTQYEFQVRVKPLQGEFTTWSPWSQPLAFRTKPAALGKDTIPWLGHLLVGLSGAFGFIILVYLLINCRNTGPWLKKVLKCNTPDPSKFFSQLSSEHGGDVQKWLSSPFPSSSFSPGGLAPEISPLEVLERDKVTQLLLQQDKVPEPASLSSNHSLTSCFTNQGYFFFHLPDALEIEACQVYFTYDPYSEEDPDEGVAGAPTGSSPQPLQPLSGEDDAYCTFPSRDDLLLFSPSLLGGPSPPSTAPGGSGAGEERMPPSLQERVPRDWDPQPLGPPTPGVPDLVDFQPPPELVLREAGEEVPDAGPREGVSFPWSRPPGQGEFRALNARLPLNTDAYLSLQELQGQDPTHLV
T1 sequence (looked up) 3: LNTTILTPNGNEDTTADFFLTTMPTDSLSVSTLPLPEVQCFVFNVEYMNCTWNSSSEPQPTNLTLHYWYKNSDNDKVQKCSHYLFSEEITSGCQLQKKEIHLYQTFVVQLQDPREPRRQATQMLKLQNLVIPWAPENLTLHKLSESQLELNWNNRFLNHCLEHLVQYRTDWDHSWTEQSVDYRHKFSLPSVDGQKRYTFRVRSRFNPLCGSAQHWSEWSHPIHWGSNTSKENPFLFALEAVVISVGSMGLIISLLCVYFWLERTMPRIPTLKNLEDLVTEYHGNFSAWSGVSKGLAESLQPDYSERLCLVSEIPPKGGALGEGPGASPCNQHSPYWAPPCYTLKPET

[2] = target: T2, intermediate affinity IL-2 receptor IL-2Rβγ on human NK cells (human, UniProt P14784 27-551; P31785 23-369)
T2 sequence (looked up) 1: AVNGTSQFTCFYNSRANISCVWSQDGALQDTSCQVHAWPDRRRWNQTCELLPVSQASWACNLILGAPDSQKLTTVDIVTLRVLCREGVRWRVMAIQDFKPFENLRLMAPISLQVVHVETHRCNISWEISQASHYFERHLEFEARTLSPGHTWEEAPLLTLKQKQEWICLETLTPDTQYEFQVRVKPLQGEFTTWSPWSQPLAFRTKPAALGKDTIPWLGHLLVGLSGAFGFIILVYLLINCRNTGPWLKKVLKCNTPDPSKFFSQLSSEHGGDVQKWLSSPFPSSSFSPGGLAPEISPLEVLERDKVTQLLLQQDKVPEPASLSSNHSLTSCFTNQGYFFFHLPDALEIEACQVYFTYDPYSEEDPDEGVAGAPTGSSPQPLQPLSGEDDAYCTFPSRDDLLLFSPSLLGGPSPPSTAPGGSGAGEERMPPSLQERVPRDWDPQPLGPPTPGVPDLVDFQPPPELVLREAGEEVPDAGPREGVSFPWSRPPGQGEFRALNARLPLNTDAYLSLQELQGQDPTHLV
T2 sequence (looked up) 2: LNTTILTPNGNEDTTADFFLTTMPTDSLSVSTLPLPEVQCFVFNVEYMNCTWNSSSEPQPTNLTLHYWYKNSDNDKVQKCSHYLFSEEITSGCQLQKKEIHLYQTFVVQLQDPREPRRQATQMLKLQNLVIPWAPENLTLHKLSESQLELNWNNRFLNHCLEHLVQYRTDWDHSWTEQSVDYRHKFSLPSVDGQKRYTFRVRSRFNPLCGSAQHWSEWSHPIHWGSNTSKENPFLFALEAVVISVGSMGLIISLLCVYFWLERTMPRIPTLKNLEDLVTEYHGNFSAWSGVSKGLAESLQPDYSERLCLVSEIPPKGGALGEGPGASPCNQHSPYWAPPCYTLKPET

[3] = target: T1, high affinity IL-2 receptor IL-2Rαβγ on …; remark: listed apart in the source
[4] = target: T2, intermediate affinity IL-2 receptor …; remark: listed apart in the source

- relative activity, T cell (PHA-blast proliferation; EC50 against EC50 of wt IL-2) [1]: 1 relative to wt IL-2
- relative activity, NK cell (NK cell proliferation; EC50 against EC50 of wt IL-2) [2]: 1 relative to wt IL-2
- EC50, T cell (PHA-blast) proliferation assay (Fig. 1A) [3]: ~150 pM
- EC50, T cell (PHA-blast) proliferation assay (Fig. 2A) [3]: ~150 pM
- EC50, T cell (PHA-blast) proliferation assay (Fig. 3A) [3]: ~40 pM
- EC50, T cell (PHA-blast) proliferation assay (Fig. 4A) [3]: ~150 pM
- EC50, T cell (PHA-blast) proliferation assay (Fig. 5A) [3]: ~150 pM
- EC50, T cell (PHA-blast) proliferation assay (Fig. 6A) [3]: ~8 pM
- EC50, T cell (PHA-blast) proliferation assay (Fig. 7A) [3]: ~50 pM
- EC50, NK cell proliferation assay (Fig. 1B) [4]: ~0.1 nM
- EC50, NK cell proliferation assay (Fig. 2B) [4]: ~0.0003 µM
- EC50, NK cell proliferation assay (Fig. 3B) [4]: ~0.2 nM
- EC50, NK cell proliferation assay (Fig. 4B) [4]: ~0.0001 µM
- EC50, NK cell proliferation assay (Fig. 5B) [4]: ~0.1 nM
- EC50, NK cell proliferation assay (Fig. 6B) [4]: ~0.05 nM
- EC50, NK cell proliferation assay (Fig. 7B) [4]: ~0.08 nM
B2: wild-type human IL-2 (ligand)
chain: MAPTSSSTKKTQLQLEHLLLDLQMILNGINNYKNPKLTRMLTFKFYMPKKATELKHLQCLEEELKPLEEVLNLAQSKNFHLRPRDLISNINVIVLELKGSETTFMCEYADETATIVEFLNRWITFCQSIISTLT

- relative activity, T cell (PHA-blast proliferation; EC50 against EC50 of wt IL-2) [1]: 3.06 relative to wt IL-2
- relative activity, NK cell (NK cell proliferation; EC50 against EC50 of wt IL-2) [2]: 0.00447 relative to wt IL-2
- EC50, T cell (PHA-blast) proliferation assay (Fig. 7A) [3]: ~20 pM
- EC50, NK cell proliferation assay (Fig. 7B) [4]: ~20 nM
B5: human IL-2 mutein Q126L (ligand)
chain: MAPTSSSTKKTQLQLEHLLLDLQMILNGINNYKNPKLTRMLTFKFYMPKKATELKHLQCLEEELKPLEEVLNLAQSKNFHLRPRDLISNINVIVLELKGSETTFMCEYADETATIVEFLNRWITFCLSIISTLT

- relative activity, T cell (PHA-blast proliferation; EC50 against EC50 of wt IL-2) [1]: 10 relative to wt IL-2
- relative activity, NK cell (NK cell proliferation; EC50 against EC50 of wt IL-2) [2]: 0.025 relative to wt IL-2
- EC50, T cell (PHA-blast) proliferation assay (Fig. 6A) [3]: ~0.8 pM
- EC50, NK cell proliferation assay (Fig. 6B) [4]: ~2 nM
B6: human IL-2 mutein Q126E (ligand)
chain: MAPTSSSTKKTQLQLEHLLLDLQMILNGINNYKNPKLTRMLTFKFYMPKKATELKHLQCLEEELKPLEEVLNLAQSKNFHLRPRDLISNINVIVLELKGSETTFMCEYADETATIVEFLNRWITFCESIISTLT

- relative activity, T cell (PHA-blast proliferation; EC50 against EC50 of wt IL-2) [1]: 0.897 relative to wt IL-2
- relative activity, NK cell (NK cell proliferation; EC50 against EC50 of wt IL-2) [2]: 0.00015 relative to wt IL-2
- EC50, T cell (PHA-blast) proliferation assay (Fig. 5A) [3]: ~90 pM
- EC50, NK cell proliferation assay (Fig. 5B) [4]: ~300 nM
B7: human IL-2 mutein N88R (ligand)
chain: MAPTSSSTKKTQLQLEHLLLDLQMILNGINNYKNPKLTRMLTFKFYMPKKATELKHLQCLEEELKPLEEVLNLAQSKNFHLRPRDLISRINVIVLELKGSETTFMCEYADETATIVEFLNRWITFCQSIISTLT

Further lines, the binder ahead of its results:

B1: human IL-2 mutein D20H (ligand)
chain: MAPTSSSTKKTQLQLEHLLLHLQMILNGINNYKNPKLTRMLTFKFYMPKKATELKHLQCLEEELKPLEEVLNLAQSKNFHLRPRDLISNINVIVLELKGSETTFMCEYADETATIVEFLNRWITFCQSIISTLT
- relative activity, T cell (PHA-blast proliferation; EC50 against EC50 of wt IL-2) [1]: 0.371 relative to wt IL-2
- relative activity, NK cell (NK cell proliferation; EC50 against EC50 of wt IL-2) [2]: 9e-05 relative to wt IL-2
- EC50, T cell (PHA-blast) proliferation assay (Fig. 1A) [3]: ~200 pM
- EC50, NK cell proliferation assay (Fig. 1B) [4]: > 10000 nM

B3: human IL-2 mutein N88G (ligand)
chain: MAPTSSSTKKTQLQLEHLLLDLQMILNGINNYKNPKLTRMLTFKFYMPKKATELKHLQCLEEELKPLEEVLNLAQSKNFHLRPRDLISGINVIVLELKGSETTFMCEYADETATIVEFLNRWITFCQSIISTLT
- relative activity, T cell (PHA-blast proliferation; EC50 against EC50 of wt IL-2) [1]: 8.33 relative to wt IL-2
- relative activity, NK cell (NK cell proliferation; EC50 against EC50 of wt IL-2) [2]: 0.00853 relative to wt IL-2
- EC50, T cell (PHA-blast) proliferation assay (Fig. 3A) [3]: ~5 pM
- EC50, NK cell proliferation assay (Fig. 3B) [4]: ~30 nM

B4: human IL-2 mutein N88I (ligand)
chain: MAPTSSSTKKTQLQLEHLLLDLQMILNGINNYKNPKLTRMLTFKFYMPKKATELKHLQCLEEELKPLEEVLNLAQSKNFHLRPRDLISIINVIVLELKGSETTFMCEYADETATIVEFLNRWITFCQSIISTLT
- relative activity, T cell (PHA-blast proliferation; EC50 against EC50 of wt IL-2) [1]: 0.981 relative to wt IL-2
- relative activity, NK cell (NK cell proliferation; EC50 against EC50 of wt IL-2) [2]: 0.0001 relative to wt IL-2
- EC50, T cell (PHA-blast) proliferation assay (Fig. 4A) [3]: ~400 pM
- EC50, NK cell proliferation assay (Fig. 4B) [4]: ~5 µM

B8: human IL-2 mutein D20I (ligand)
chain: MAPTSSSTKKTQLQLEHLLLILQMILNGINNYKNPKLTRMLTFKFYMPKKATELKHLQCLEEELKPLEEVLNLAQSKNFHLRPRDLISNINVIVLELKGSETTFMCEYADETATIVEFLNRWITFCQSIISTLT
- relative activity, T cell (PHA-blast proliferation; EC50 against EC50 of wt IL-2) [1]: 4.6 relative to wt IL-2
- relative activity, NK cell (NK cell proliferation; EC50 against EC50 of wt IL-2) [2]: 0.00061 relative to wt IL-2
- EC50, T cell (PHA-blast) proliferation assay (Fig. 2A) [3]: ~150 pM
- EC50, NK cell proliferation assay (Fig. 2B) [4]: ~5 µM

Each block holds one binder with its values, some of them ahead of it.
